Each structure is given as a SMILES string. Hit rate of the full screen: of about 48,000 compounds, about 550 (1.1%) were called active. Inconclusive results (about 4%) are left out. Cut-off read from the data, not from the text of the source: active = potency below about 15 µM; inconclusive = mostly about 16 µM to 33 µM; inactive = weaker than that. This is one part of the list.
Potency is the fitted concentration of half-maximal effect.

Sequence of UniProt P04062 (P04062 whole entry, looked up): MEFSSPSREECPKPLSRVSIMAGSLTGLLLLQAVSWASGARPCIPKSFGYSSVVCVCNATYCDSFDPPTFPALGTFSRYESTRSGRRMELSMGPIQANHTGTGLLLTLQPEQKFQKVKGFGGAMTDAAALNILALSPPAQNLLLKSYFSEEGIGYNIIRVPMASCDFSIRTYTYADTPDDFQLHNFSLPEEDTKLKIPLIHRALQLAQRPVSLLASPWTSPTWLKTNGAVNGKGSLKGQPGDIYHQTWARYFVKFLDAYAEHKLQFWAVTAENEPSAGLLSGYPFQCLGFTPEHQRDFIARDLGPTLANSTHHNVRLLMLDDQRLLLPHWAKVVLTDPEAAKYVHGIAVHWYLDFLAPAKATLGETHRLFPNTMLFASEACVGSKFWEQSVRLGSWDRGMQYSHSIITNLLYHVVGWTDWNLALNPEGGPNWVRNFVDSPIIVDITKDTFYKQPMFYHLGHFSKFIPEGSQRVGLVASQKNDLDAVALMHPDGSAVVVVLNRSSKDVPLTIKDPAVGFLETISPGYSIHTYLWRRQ

This test has as its target Lysosomal acid glucosylceramidase (Homo sapiens) (UniProt P04062). The test can be described thus: Glucocerebrosidase.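 Note: the screen sought inhibitors.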 Particulars: purified enzyme, resorufin glucoside fluorescence (screen aimed at inhibitors), 20 min. The essentials:
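Wild-type enzyme at 0.2 nM final in 50mM citric acid/KH2PO4, 10mM sodium taurocholate, 0.01% tween-20, pH 5.9, with resorufin beta-D-glucopyranoside at 30 uM final. Compounds titrated, 20 min at RT, red fluorescence read; AC50 from titration.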
In the case of `CC(=O)Nc1ccc(S(=O)(=O)Nc2cccc(NC(=O)C(C)(C)C)c2)cc1`, the Potency is inactive: > 76.9 µM.

Regarding `CCCCN(CCCC)S(=O)(=O)c1ccc2oc(C(=O)N3CCOCC3)c(C)c2c1`, the Potency is inactive: > 76.9 µM.

In the case of `Cn1nc(CC(=O)NCCN2C(=O)CSC2=O)c2ccccc2c1=O`, the Potency was inactive: > 76.9 µM.

Take `CC(C)(C)NC(=O)NC(=O)COc1ccccn1`: the Potency was inactive: > 76.9 µM.

Take `O=C(NCc1ccccn1)c1cnc2sccn2c1=O`: the Potency is inactive: > 76.9 µM.

For `Cc1nn2c(nc1=O)SCC(c1ccccc1)=N2`, the Potency is inactive: > 76.9 µM.

`CCC(C)(C)n1nnnc1C(C(C)C)N1CCN(C)CC1` (stereo not drawn): the Potency is inactive: > 76.9 µM.

As for `COCCN1C(=O)c2ccc(C(=O)O)cc2C1=O`, the Potency was inactive: > 76.9 µM.

In the case of `Cc1ccc(-c2nnc(CSc3nnc4c5c(C)c(C)sc5nc(C(C)C)n34)o2)cc1`, the Potency was inactive: > 76.9 µM.

Take `CCc1nnc2c3cnn(-c4ccccc4)c3ncn12`: the Potency was inactive: > 76.9 µM.

Consider `CCOCCc1c(O)nc(SCC(=O)NCc2ccco2)[nH]c1=O`, for which the Potency is inactive: > 76.9 µM.

`CCOCCCNC(=O)C(c1ccc(Cl)cc1)N1CCN(C(=O)c2ccco2)CC1` (stereo not drawn): the Potency is inactive: > 76.9 µM.

Consider `O=C(COc1cccc(Oc2ccccc2)c1)Nc1ncccn1`, for which the Potency was inactive: > 76.9 µM.

`COc1ccc(NC(=O)CCS(=O)(=O)c2ccc3c(c2)CCCN3C(C)=O)cc1`: the Potency was inactive: > 76.9 µM.

For `CC(C)CCNC(=O)NC(=O)CN1C(=O)NC2(CCCCC2)C1=O`, the Potency was inactive: > 76.9 µM.

Regarding `CCN(CCCNC(=O)CN(C)S(=O)(=O)c1cccc2nsnc12)c1cccc(C)c1`, the Potency is inactive: > 76.9 µM.

As for `Cc1cc(C)n(-c2ccc(Cl)c(C(=O)O)n2)n1`, the Potency is inactive: > 76.9 µM.

For the compound `O=C(NC1CCCC1)C1CCN(S(=O)(=O)N2CCCCC2)CC1`, the Potency is inactive: > 76.9 µM.

For `O=C1CC(N2CCN(c3ccc(F)cc3)CC2)C(=O)N1Cc1ccc(N2CCCC2=O)cc1` (stereo not drawn), the Potency was inactive: > 76.9 µM.

Take `CC1(C)C(=O)OC(c2cccs2)C(C)(C)C1=O` (stereo not drawn): the Potency is inactive: > 76.9 µM.

Regarding `O=C(O)c1cc(/C=N\O)ccc1OCc1ccccc1`, the Potency is inactive: > 76.9 µM.

Regarding `Cc1cc(=O)n2nc(N3CCC(C(=O)NCCC4=CCCCC4)CC3)sc2n1`, the Potency is inactive: > 76.9 µM.

For the compound `CCn1c(COc2ccccc2)nnc1SCC(=O)Nc1ccc2c(c1)OCCO2`, the Potency is inactive: > 76.9 µM.

`COc1cc(NC(=O)c2ccccc2)cc(OC)c1`: the Potency was inactive: > 76.9 µM.

As to `Cc1cc(Cl)ccc1OCC(=O)Nn1c(C)ccc1C`, the Potency result was “inactive”.

`CCCc1cc(C(N)=O)c(NC(=O)c2ccco2)s1`: the Potency was inactive: > 76.9 µM.

For the compound `Cc1ccc(N2C(N)=C(C#N)C(c3cccnc3)C3=C2CC(C)(C)CC3=O)cc1` (stereo not drawn), the Potency is inactive: > 76.9 µM.

For the compound `CCNC(=O)CN(c1ccc(OC)c(OC)c1)S(=O)(=O)c1ccccc1`, the Potency is inactive: > 76.9 µM.

In the case of `Nn1c(SCc2csc(-c3ccccc3)n2)nnc1-c1cccs1`, the Potency was inactive: > 76.9 µM.

Take `COc1ccc(-c2cc(C(F)(F)F)nc(N3CCN(c4ccc(F)cc4)CC3)n2)cc1OC`: the Potency was inactive: > 76.9 µM.

Turning to `CCOc1cc(C)c(S(=O)(=O)Nc2ccc(Cl)cn2)cc1C`, the Potency entry was “inactive”.

For the compound `O=c1c2cc(N3CCOCC3)ccc2[nH]c(=S)n1CCCN1CCCC1`, the Potency is inactive: > 76.9 µM.

In the case of `CC(NC(=O)NCC1CCCO1)(C(F)(F)F)C(F)(F)F` (stereo not drawn), the Potency is inactive: > 76.9 µM.

Regarding `CSc1nnc(-c2cnccn2)n1CCCN1CCCC1=O`, the Potency is inactive: > 76.9 µM.

As for `Cn1c(CCNC(=O)c2ccco2)nc2cc(NC(=O)NC3CCCCC3)ccc21`, the Potency was inactive: > 76.9 µM.

For `O=C(O)C1CCCN1S(=O)(=O)c1ccc2c(c1)CCC2` (stereo not drawn), the Potency was inactive: > 76.9 µM.

Turning to `Cc1csc(NC(=O)c2cccc(Cn3nc(C)c(Br)c3C)c2)n1`, the Potency is inactive: > 76.9 µM.

As to `COc1ccc2[nH]c(=O)c(CN(CC3CCCO3)C(=O)Nc3ccccc3)cc2c1` (stereo not drawn), the Potency is inactive: > 76.9 µM.

Regarding `COC(=O)C1=C(C)NC(=O)CC1c1cc(Br)ccc1F` (stereo not drawn), the Potency was inactive: > 76.9 µM.

Take `O=C(Nc1cccnc1)c1c(F)c(F)c(F)c(F)c1F`: the Potency was inactive: > 76.9 µM.

Take `O=C(Nc1ccc(N2CCCCC2)c(C(=O)O)c1)c1ccco1`: the Potency is inactive: > 76.9 µM.

As to `Cc1cc(C(=O)COc2cccc3cccnc23)c(C)n1C`, the Potency is inactive: > 76.9 µM.

Regarding `COCCn1c(Cc2ccccc2)nnc1SCC(=O)NC(C)C`, the Potency was inactive: > 76.9 µM.

In the case of `CCN(CC)S(=O)(=O)c1cccc(-c2nnc(SCC(=O)c3cc(C)n(C)c3C)o2)c1`, the Potency was inactive: > 76.9 µM.

In the case of `COc1ccccc1NC(=O)Cn1c(CN2CCCCC2)nc2ccccc2c1=O`, the Potency was inactive: > 76.9 µM.

Consider `CC(C)C(c1nnnn1CCc1ccccc1)N1CCOCC1` (stereo not drawn), for which the Potency was inactive: > 76.9 µM.

As for `Cc1ccc(C)c(NC(=O)CSc2nnc([C@@H]3CCCN3C(=O)OC(C)(C)C)o2)c1`, the Potency is inactive: > 76.9 µM.

As to `CCOC(=O)CCCNC(=O)COC(=O)c1cccc(C)c1O`, the Potency is inactive: > 76.9 µM.

`Nn1c(SCC(=O)NC(=O)NC2CCCC2)nnc1-c1ccccc1F`: the Potency is inactive: > 76.9 µM.

With `CCCCCn1c(CNC(=O)COC)nc2ccccc21`, the Potency is inactive: > 76.9 µM.

As for `O=C(COc1ccccc1)Nc1ccccc1N1CCCCC1`, the Potency is inactive: > 76.9 µM.

`COc1ccc(-c2nnc(NC(=O)c3ccc(S(=O)(=O)N4CCc5ccccc5C4)cc3)o2)cc1`: the Potency is inactive: > 76.9 µM.

On to `CC12CS(=O)(=O)CC1SC(=S)N2c1ccccn1` (stereo not drawn), for which the Potency was inactive: > 76.9 µM.

Regarding `CC(Sc1ccc2c(c1)OCCO2)C(=O)Nc1ccc2c(c1)OCO2` (stereo not drawn), the Potency is active: 15 µM.

For the compound `CC(=O)Cc1ccccc1OCC(=O)O`, the Potency is inactive: > 76.9 µM.

In the case of `Cc1cn2nc(N)c3ccccc3c2n1`, the Potency is inactive: > 76.9 µM.

In the case of `O=C(Cc1ccccc1)Nc1ccc(-c2nnc(-c3ccco3)o2)cc1`, the Potency is inactive: > 76.9 µM.

For `O=C(NC1CCCCCC1)C1CCCN(S(=O)(=O)c2cccs2)C1` (stereo not drawn), the Potency was inactive: > 76.9 µM.

Regarding `Cc1ccc(NS(=O)(=O)c2cc(C(=O)N3CCOCC3)ccc2C)cc1C`, the Potency is inactive: > 76.9 µM.

Turning to `O=C(c1ccc2ccccc2c1)N1CCN(c2ccccc2)CC1`, the Potency was inactive: > 76.9 µM.

On to `CCCc1cc(=O)n2[nH]c(NCc3c(F)cccc3Cl)nc2n1`, for which the Potency was inactive: > 76.9 µM.

For `Cc1nnc(N2CCc3ccccc3C2)[nH]c1=O`, the Potency was inactive: > 76.9 µM.

`O=C(CSc1nc2ccccc2s1)N1CCOCC1`: the Potency was inactive: > 76.9 µM.

Take `COc1ccc(CCNC(=O)CSc2nnnn2Cc2ccc3c(c2)OCO3)cc1OC`: the Potency was inactive: > 76.9 µM.

As to `COc1ccc(-n2c(=O)cc(N3CCN(c4ccccc4)CC3)[nH]c2=O)cc1`, the Potency is inactive: > 76.9 µM.

`Cc1cccc(NC(=O)CSCc2c(C)noc2C)c1C`: the Potency is inactive: > 76.9 µM.

Take `Cc1onc(-c2ccccc2Cl)c1C(=O)Nc1ccc(S(=O)(=O)NCC2CCCO2)cc1` (stereo not drawn): the Potency was inactive: > 76.9 µM.

`CCN(CC)CCn1c(=S)[nH]c2cc(Cl)ccc2c1=O`: the Potency is inactive: > 76.9 µM.

As to `O=C(COC(=O)Cn1cnc2ccccc21)NCCC1=CCCCC1`, the Potency was inactive: > 76.9 µM.

With `CCC(=O)Nc1ccc2nc(C)n(CC(=O)Nc3ccccc3)c(=O)c2c1`, the Potency was inactive: > 76.9 µM.

For `CC1(C)NC(=O)N(CNc2cc(Cl)ccc2Cl)C1=O`, the Potency was inactive: > 76.9 µM.

Regarding `Cc1nc(SCn2nnc3ccccc3c2=O)nc(C)c1C`, the Potency was inactive: > 76.9 µM.

Regarding `O=C(c1cc2n(n1)C(C(F)(F)F)CC(c1ccc(Cl)cc1)N2)N1CCCC1` (stereo not drawn), the Potency is inactive: > 76.9 µM.

`O=C(CSc1nnc(CNC(=O)c2ccco2)o1)NC1CCCC1`: the Potency was inactive: > 76.9 µM.

As to `O=C(c1ccco1)N(Cc1ccco1)c1ccc(O)cc1`, the Potency is inactive: > 76.9 µM.

As to `Cc1cccc(N2CCN(C(=O)c3cc4c(=O)[nH]c5ccccc5c4n3C)CC2)c1C`, the Potency was inactive: > 76.9 µM.

`CCn1nccc1C(=O)NC1=C(C#N)CCC1`: the Potency is inactive: > 76.9 µM.

As to `COc1ccc(N(CC(=O)Nc2cccc(C)c2)S(=O)(=O)c2c(C)n[nH]c2C)cc1`, the Potency was inactive: > 76.9 µM.

As for `CCOC(=O)N1CCC(NC(=O)CCC(=O)N2CCOc3ccc(C)cc32)CC1`, the Potency was inactive: > 76.9 µM.

With `CC1(C)CC(=O)c2sc(N)nc2C1`, the Potency is inactive: > 76.9 µM.

As to `O=C1CC(N2CCCCCC2)C(=O)N1c1ccc2c(c1)OCO2` (stereo not drawn), the Potency is inactive: > 76.9 µM.

Take `CC(=O)c1ccc(NC(=O)CSc2nnc(-c3ccoc3C)n2Cc2ccccc2)cc1`: the Potency is inactive: > 76.9 µM.

With `COc1ccc(CCNS(=O)(=O)c2cccc(C(=O)O)c2)cc1OC`, the Potency is inactive: > 76.9 µM.

For the compound `OC1CCN(c2c3c(nc4cc(-c5cccc(F)c5)nn24)CCCC3)CC1`, the Potency result is “inactive”.

Turning to `COc1ccc(C2C(=O)N(C3CCCCCC3)CC(=O)N2Cc2ccccc2)cc1OC` (stereo not drawn), the Potency was inactive: > 76.9 µM.

With `CCc1nnc(SCC(=O)NC2CCCCC2)nc1CC`, the Potency was inactive: > 76.9 µM.

`Fc1ccc2nc(N3CCCCC3)sc2c1`: the Potency is inactive: > 76.9 µM.

With `COc1ccc(N2C(=O)CC(NCc3cccs3)C2=O)cc1` (stereo not drawn), the Potency is inactive: > 76.9 µM.

`CC(=O)Nc1cccc2c1OCCO2`: the Potency is inactive: > 76.9 µM.

Regarding `O=C(CCCSc1nc2ccccc2[nH]1)Nc1nnc(-c2ccccc2)o1`, the Potency was inactive: > 76.9 µM.

For the compound `CCOc1ccc(-n2nc(C(=O)NCCOC)c3ccccc3c2=O)cc1`, the Potency is inactive: > 76.9 µM.

For `CCCn1cnc2c(c1=O)c1nc3ccccc3nc1n2Cc1ccccc1OC`, the Potency is inactive: > 76.9 µM.

Consider `Cc1cccc(OCC(O)Cn2c(NCCCOC(C)C)nc3c2c(=O)[nH]c(=O)n3C)c1` (stereo not drawn), for which the Potency is inactive: > 76.9 µM.
